# Assay results from the supplement of paper PMC8728848.
# This is one part of the list.
# B1: Gal 2 (Homo sapiens), P05162 (protein)
# chain: MTGELEVKNMDMKPGSTLKITGSIADGTDGFVINLGQGTDKLNLHFNPRFSESTIVCNSLDGSNWGQEQREDHLCFSPGSEVKFTVTFESDKFKVKLPDGHELTFPNRLGHSHLSYLSVRGGFNMSSFKLKE
# How the values were obtained:
# Assay in all cases: glycan array binding signal (z-score within array); higher = stronger binding
# Conditions in all cases: glycan notation: IUPAC condensed, linker removed
# [1] = biological target: Neu5Ac(a2-3)Gal(b1-4)GlcNAc(b1-3)Gal(b1-4)GlcNAc(b1-3)GalNAc
# Summary of the method: (§1)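 Negative Z-scores can be read as non-binding. The Z-score is calculated within each array and then averaged across arrays of one protein sequence at different concentrations or buffers and across linkers. Arrays, 3228 in all, were curated from the Consortium for Functional Glycomics database and kept only where the protein sequence was available.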
# [2] = biological target: Neu5Ac(a2-3)Gal(b1-4)GlcNAc(b1-3)Gal(b1-4)GlcNAc(b1-3)[Neu5Ac(a2-3)Gal(b1-4)GlcNAc(b1-3)Gal(b1-4)GlcNAc(b1-6)]GalNAc
# Summary of the method: as §1
# [3] = biological target: Neu5Ac(a2-3)Gal(b1-4)GlcNAc(b1-3)Gal(b1-4)GlcNAc(b1-6)[Gal(b1-3)]GalNAc
# Summary of the method: as §1
# [4] = biological target: Neu5Ac(a2-3)Gal(b1-4)GlcNAc(b1-3)Gal(b1-4)[Fuc(a1-3)]GlcNAc
# Summary of the method: as §1
# [5] = biological target: Neu5Ac(a2-3)Gal(b1-4)GlcNAc(b1-3)GalNAc
# Summary of the method: as §1
# [6] = biological target: Neu5Ac(a2-3)Gal(b1-4)GlcNAc(b1-3)[Neu5Ac(a2-3)Gal(b1-4)GlcNAc(b1-6)]GalNAc
# Summary of the method: as §1
# [7] = biological target: Neu5Ac(a2-3)Gal(b1-4)GlcNAc(b1-6)GalNAc
# Summary of the method: as §1
# [8] = biological target: Neu5Ac(a2-3)Gal(b1-4)GlcNAc(b1-6)[Gal(b1-3)]GalNAc
# Summary of the method: as §1
# [9] = biological target: Neu5Ac(a2-3)Gal(b1-4)GlcNAc(b1-6)[Neu5Ac(a2-3)Gal(b1-3)]GalNAc
# Summary of the method: as §1
# [10] = biological target: Neu5Ac(a2-3)Gal(b1-4)GlcNAc6S
# Summary of the method: as §1
# [11] = biological target: Neu5Ac(a2-3)Gal(b1-4)[Fuc(a1-3)]GlcNAc
# Summary of the method: as §1
# [12] = biological target: Neu5Ac(a2-3)Gal(b1-4)[Fuc(a1-3)]GlcNAc(b1-2)Man
# Summary of the method: as §1
# [13] = biological target: Neu5Ac(a2-3)Gal(b1-4)[Fuc(a1-3)]GlcNAc(b1-3)Gal
# Summary of the method: as §1
# [14] = biological target: Neu5Ac(a2-3)Gal(b1-4)[Fuc(a1-3)]GlcNAc(b1-3)Gal(b1-4)GlcNAc
# Summary of the method: as §1
# [15] = biological target: Neu5Ac(a2-3)Gal(b1-4)[Fuc(a1-3)]GlcNAc(b1-3)Gal(b1-4)[Fuc(a1-3)]GlcNAc(b1-3)Gal(b1-4)[Fuc(a1-3)]GlcNAc
# Summary of the method: as §1
# [16] = biological target: Neu5Ac(a2-3)Gal(b1-4)[Fuc(a1-3)]GlcNAc(b1-3)GalNAc
# Summary of the method: as §1
# [17] = biological target: Neu5Ac(a2-3)Gal(b1-4)[Fuc(a1-3)]GlcNAc(b1-6)[Gal(b1-3)]GalNAc
# Summary of the method: as §1
# [18] = biological target: Neu5Ac(a2-3)Gal(b1-4)[Fuc(a1-3)]GlcNAc(b1-6)[Neu5Ac(a2-3)Gal(b1-3)]GalNAc
# Summary of the method: as §1
# [19] = biological target: Neu5Ac(a2-3)Gal(b1-4)[Fuc(a1-3)]GlcNAc6S
# Summary of the method: as §1
# [20] = biological target: Neu5Ac(a2-3)Gal6S(b1-4)GlcNAc
# Summary of the method: as §1
# [21] = biological target: Neu5Ac(a2-3)Gal6S(b1-4)[Fuc(a1-3)]GlcNAc
# Summary of the method: as §1
# Neu5Ac(a2-3)GalNAc = biological target: Neu5Ac(a2-3)GalNAc
# Summary of the method: as §1
# [22] = biological target: Neu5Ac(a2-3)GalNAc(b1-4)GlcNAc
# Summary of the method: as §1
# [23] = biological target: Neu5Ac(a2-3)[GalNAc(b1-4)]Gal(b1-4)Glc
# Summary of the method: as §1
# [24] = biological target: Neu5Ac(a2-3)[GalNAc(b1-4)]Gal(b1-4)GlcNAc
# Summary of the method: as §1
# [25] = biological target: Neu5Ac(a2-3)[GalNAc(b1-4)]Gal(b1-4)GlcNAc(b1-3)GalNAc
# Summary of the method: as §1
# [26] = biological target: Neu5Ac(a2-3)[Neu5Ac(a2-6)]GalNAc
# Summary of the method: as §1
# Neu5Ac(a2-6)Gal = biological target: Neu5Ac(a2-6)Gal
# Summary of the method: as §1
# [27] = biological target: Neu5Ac(a2-6)Gal(b1-3)GlcNAc(b1-3)[Gal(b1-4)GlcNAc(b1-6)]Gal(b1-4)Glc
# Summary of the method: as §1
# Neu5Ac(a2-6)Gal(b1-4)Glc = biological target: Neu5Ac(a2-6)Gal(b1-4)Glc
# Summary of the method: as §1
# [28] = biological target: Neu5Ac(a2-6)Gal(b1-4)GlcNAc
# Summary of the method: as §1
# [29] = biological target: Neu5Ac(a2-6)Gal(b1-4)GlcNAc(b1-2)Man
# Summary of the method: as §1
# [30] = biological target: Neu5Ac(a2-6)Gal(b1-4)GlcNAc(b1-2)Man(a1-3)Man(b1-4)GlcNAc(b1-4)GlcNAc
# Summary of the method: as §1
# [31] = biological target: Neu5Ac(a2-6)Gal(b1-4)GlcNAc(b1-2)Man(a1-3)[Gal(b1-4)GlcNAc(b1-2)Man(a1-6)]Man(b1-4)GlcNAc(b1-4)GlcNAc
# Summary of the method: as §1
# [32] = biological target: Neu5Ac(a2-6)Gal(b1-4)GlcNAc(b1-2)Man(a1-3)[GlcNAc(b1-2)Man(a1-6)]Man(b1-4)GlcNAc(b1-4)GlcNAc
# Summary of the method: as §1
# [33] = biological target: Neu5Ac(a2-6)Gal(b1-4)GlcNAc(b1-2)Man(a1-3)[GlcNAc(b1-2)Man(b1-4)GlcNAc(b1-2)Man(a1-6)]Man(b1-4)GlcNAc(b1-4)GlcNAc
# Summary of the method: as §1
# [34] = biological target: Neu5Ac(a2-6)Gal(b1-4)GlcNAc(b1-2)Man(a1-3)[GlcNAc(b1-4)][Neu5Ac(a2-6)Gal(b1-4)GlcNAc(b1-2)Man(a1-6)]Man(b1-4)GlcNAc(b1-4)GlcNAc
# Summary of the method: as §1
# [35] = biological target: Neu5Ac(a2-6)Gal(b1-4)GlcNAc(b1-2)Man(a1-3)[Man(a1-6)]Man(b1-4)GlcNAc(b1-4)GlcNAc
# Summary of the method: as §1
# [36] = biological target: Neu5Ac(a2-6)Gal(b1-4)GlcNAc(b1-2)Man(a1-3)[Neu5Ac(a2-3)Gal(b1-4)GlcNAc(b1-2)Man(a1-6)]Man(b1-4)GlcNAc(b1-4)GlcNAc
# Summary of the method: as §1
# [37] = biological target: Neu5Ac(a2-6)Gal(b1-4)GlcNAc(b1-2)Man(a1-3)[Neu5Ac(a2-6)Gal(b1-4)GlcNAc(b1-2)Man(a1-6)]Man(b1-4)GlcNAc(b1-4)GlcNAc
# Summary of the method: as §1
# [38] = biological target: Neu5Ac(a2-6)Gal(b1-4)GlcNAc(b1-2)Man(a1-3)[Neu5Ac(a2-6)Gal(b1-4)GlcNAc(b1-2)Man(a1-6)]Man(b1-4)GlcNAc(b1-4)[Fuc(a1-6)]GlcNAc
# Summary of the method: as §1
# [39] = biological target: Neu5Ac(a2-6)Gal(b1-4)GlcNAc(b1-2)Man(a1-6)Man(b1-4)GlcNAc(b1-4)GlcNAc
# Summary of the method: as §1
# [40] = biological target: Neu5Ac(a2-6)Gal(b1-4)GlcNAc(b1-2)Man(a1-6)[Gal(b1-4)GlcNAc(b1-2)Man(a1-3)]Man(b1-4)GlcNAc(b1-4)GlcNAc
# Summary of the method: as §1
# [41] = biological target: Neu5Ac(a2-6)Gal(b1-4)GlcNAc(b1-2)Man(a1-6)[GlcNAc(b1-2)Man(a1-3)]Man(b1-4)GlcNAc(b1-4)GlcNAc
# Summary of the method: as §1
# [42] = biological target: Neu5Ac(a2-6)Gal(b1-4)GlcNAc(b1-2)Man(a1-6)[Man(a1-3)]Man(b1-4)GlcNAc(b1-4)GlcNAc
# Summary of the method: as §1
binder,measurement,setting,value
B1,glycan array binding signal (z-score),[1],-0.256
same,glycan array binding signal (z-score),[2],-0.218
same,glycan array binding signal (z-score),[3],-0.213
same,glycan array binding signal (z-score),[4],-0.282
same,glycan array binding signal (z-score),[5],-0.029
same,glycan array binding signal (z-score),[6],-0.302
same,glycan array binding signal (z-score),[7],-0.236
same,glycan array binding signal (z-score),[8],-0.191
same,glycan array binding signal (z-score),[9],-0.181
same,glycan array binding signal (z-score),[10],-0.234
same,glycan array binding signal (z-score),[11],-0.284
same,glycan array binding signal (z-score),[12],-0.061
same,glycan array binding signal (z-score),[13],-0.27
same,glycan array binding signal (z-score),[14],-0.229
same,glycan array binding signal (z-score),[15],-0.23
same,glycan array binding signal (z-score),[16],0.065
same,glycan array binding signal (z-score),[17],-0.193
same,glycan array binding signal (z-score),[18],0.14
same,glycan array binding signal (z-score),[19],-0.251
same,glycan array binding signal (z-score),[20],-0.225
same,glycan array binding signal (z-score),[21],-0.281
same,glycan array binding signal (z-score),Neu5Ac(a2-3)GalNAc,-0.299
same,glycan array binding signal (z-score),[22],-0.255
same,glycan array binding signal (z-score),[23],-0.272
same,glycan array binding signal (z-score),[24],-0.235
same,glycan array binding signal (z-score),[25],-0.183
same,glycan array binding signal (z-score),[26],-0.272
same,glycan array binding signal (z-score),Neu5Ac(a2-6)Gal,-0.241
same,glycan array binding signal (z-score),[27],-0.245
same,glycan array binding signal (z-score),Neu5Ac(a2-6)Gal(b1-4)Glc,-0.234
same,glycan array binding signal (z-score),[28],-0.254
same,glycan array binding signal (z-score),[29],-0.155
same,glycan array binding signal (z-score),[30],-0.189
same,glycan array binding signal (z-score),[31],-0.145
same,glycan array binding signal (z-score),[32],-0.22
same,glycan array binding signal (z-score),[33],-0.154
same,glycan array binding signal (z-score),[34],-0.169
same,glycan array binding signal (z-score),[35],-0.18
same,glycan array binding signal (z-score),[36],-0.229
same,glycan array binding signal (z-score),[37],-0.18
same,glycan array binding signal (z-score),[38],-0.196
same,glycan array binding signal (z-score),[39],-0.065
same,glycan array binding signal (z-score),[40],-0.209
same,glycan array binding signal (z-score),[41],-0.192
same,glycan array binding signal (z-score),[42],-0.12
